In PubChem BioAssay AID445 (National Center for Advancing Translational Sciences (NCATS), 2006):
Where “and” joins values, the source holds several entries; their conditions need not be identical. Identical values can stand only once. The whole screen tested about 110,000 compounds, of which about 40 (0.04%) were called active. The inconclusive results got no clear call from the source; some entries with a clear call stand among them for comparison. Calls follow the shape of the dose curve; as a rule, active = well fitted curve in the direction sought with a large enough effect in the signal ratio (not every such curve was filed as active); inconclusive = small, poorly fitted or top-dose-only effect, or a change in a side signal; inactive = flat fitted curve, though single readings scatter; the % refers to the signal ratio. Potencies beside an inconclusive call are fits to weak or partial responses and may not hold up.

experiment: IkB Signaling; details: ABC-DLBCL IkBa-CBG/CBR dual luciferase ratio (green luciferase fused to IkBa over red control in OCI-Ly3 lymphoma cells), 4 h; IkBa stabilization activation: at 57.1 µM (top of the series), scaled: untreated 0%, proteasome inhibitor 100% unless noted;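 as to IkBa stabilization activation: 0% = basal untreated cells and 100% = reference inhibitor full response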
How it was run: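 Curves were fitted separately to fusion (green), unfused (red) and ratio luminescence, then classed by r2, magnitude and activity. Cells: OCI-Ly3, 4 h compound plus doxycycline at 37C; 10 uM MG-132 defined full response.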
Potency is read from the fitted curve at half-maximal effect.

Compound | IkBa stabilization activation | Potency
O=c1cccc2n1C[C@@H]1C[C@H]2CN2CCCC[C@H]12 | inactive: 3.37% [at 11.4 µM, scaled: untreated 0%, proteasome inhibitor 100%] | 
COC(=O)C(C)Oc1cc(C)cc2oc(=O)c3c(c12)CCC3 (centres undefined) | inactive: 1.82% | 
Cc1ccc(CS(=O)(=O)CCC(=O)N2CCC3(CC2)OCCO3)cc1 | inactive: 0.722% | 
Cc1noc(C)c1C(=O)N1CCC2(CCCN(CC(C)C)C2)CC1 | inactive: 0.837% [at 11.4 µM, scaled: untreated 0%, proteasome inhibitor 100%] | 
CCOc1ccc2[nH]c(=O)c(CN(CCO)C3(c4nnnn4C4CCCCC4)CCCCC3)cc2c1 | inactive: 2.75% | 
Cc1cc(C)c(C(=O)CN2CCOCC2)c(C)c1 | inactive: 8.68% | 
CCCn1c(=O)c2[nH]c(C3CCCC3)nc2n(CCCOC(=O)c2ccc(S(=O)(=O)F)cc2)c1=O |  | inconclusive: 15.8 µM [signal inhibitor, full curve]
Cc1nc2cc(C(F)(F)F)ccc2n1C1CCN(Cc2nnnn2Cc2ccc3c(c2)OCO3)CC1 | inconclusive: -8.37% [signal inhibitor] | 
CC(=O)[C@@H]1CC[C@H]2[C@H]3CC[C@H]4C[C@@H](O)CC[C@]4(C)[C@@H]3CC[C@]12C | inactive: 15.2% | 
COc1cc2c(cc1O)[C@H]1Cc3ccc(OC)c(O)c3CN1CC2 |  | inconclusive: 12.6 µM [signal activator, partial curve]
COc1cc(CCN)c(OC)c(OC)c1 | inactive: -0.726% [at 11.4 µM, scaled: untreated 0%, proteasome inhibitor 100%] | 
Cc1cc(N=Nc2ccccc2C)ccc1N | inactive: 5.65% | 
Cc1ccccc1-n1c(/C=C/c2ccccc2F)nc2ccccc2c1=O |  | inconclusive: 31.6 µM [signal inhibitor]
COCCOC(=O)C1=C(N)Oc2c(c(=O)oc3ccccc23)C1c1ccncc1 (centres undefined) |  | inconclusive: 0.316 µM [signal inhibitor, full curve]
C[C@H]1CCC[C@@H](O)CCC/C=C/c2cc(O)cc(O)c2C(=O)O1 | inconclusive: 7.37% [signal activator] | 
O=C(COc1ccccc1[N+](=O)[O-])N1CCN(CCc2ccccn2)CC1 | inconclusive: 4.39% [signal inhibitor] | 
ClC1=C(Cl)C2(Cl)C3C4CC(C5OC45)C3C1(Cl)C2(Cl)Cl (centres undefined) | inconclusive: 5.76% [signal activator] | 
O=C(Nc1ccccc1C(F)(F)F)c1cccn(Cc2ccccc2)c1=O | inconclusive: 1.88% [signal inhibitor] | 
Cc1ccc(-n2c(/C=C/c3cccc4ccccc34)nc3ccccc3c2=O)cc1 | inconclusive: 2.99% [signal inhibitor] | 
O=C(Nc1cccnc1)c1c(O)c2c(n(Cc3ccccc3)c1=O)CCCC2 | inconclusive: 3.4% [signal inhibitor] | 

Compound | IkBa stabilization activation | Potency
C[C@@H]1O[C@@H](O[C@H]2C[C@@H](O)[C@]3(CO)[C@@H]4[C@@H](O)C[C@]5(C)[C@H]([C@@H]6COC(=O)C6)CC[C@@]5(O)[C@H]4CC[C@@]3(O)C2)[C@H](O)[C@H](O)[C@@H]1O | inactive: -5.13% | 
C[C@@H]1CC[C@@H]2N(C1)C[C@H]1[C@@](O)([C@H](O)C[C@]3(O)[C@H]4CC[C@H]5[C@]6(O)O[C@]4(C[C@]13O)[C@@]5(C)CC[C@@H]6O)[C@@]2(C)O | inactive: 0.752% [at 11.4 µM, scaled: untreated 0%, proteasome inhibitor 100%] | 
CN(C(=O)Cc1ccc(Cl)c(Cl)c1)[C@H](CN1CCCC1)c1cccc(N=C=S)c1 | inconclusive: 0.648% [signal inhibitor] | 
Nc1ccc(Cl)cc1N |  | inconclusive: 0.501 µM [signal inhibitor, full curve]
N#CSCSC#N |  | inconclusive: 2.51 µM [signal activator, partial curve]
O=C(O)[C@@H]1[C@H](C(=O)O)[C@]2(Cl)C(Cl)=C(Cl)[C@@]1(Cl)C2(Cl)Cl |  | active: 3.16 µM
C[C@@]12CC[C@H](O)C[C@@H]1CC[C@H]1[C@H]2CC[C@@]2(C)[C@@H](C3=CC(=O)OC3)CC[C@]12O | inconclusive: -0.417% [signal inhibitor] [at 25.6 µM, scaled: untreated 0%, proteasome inhibitor 100%] | 
CCOC(=O)c1ccc(NC(=O)CSc2nc3c(cc2C#N)N2CCC3CC2)cc1 | inconclusive: 2.94% [signal inhibitor] | 
Cc1cccc(Cn2cccc(C(=O)Nc3nc4ccccc4s3)c2=O)c1 | inactive: 1.88% | 
COc1cc2cc(c1Cl)N(C)C(=O)C[C@H](OC(=O)C(C)C)[C@]1(C)O[C@@H]1[C@@H](C)[C@H]1C[C@](O)(NC(=O)O1)[C@@H](OC)/C=C\C=C(\C)C2 | inconclusive: 14.1% [signal activator] [at 11.4 µM, scaled: untreated 0%, proteasome inhibitor 100%] | 
NS(=O)(=O)C[C-]1C=C[CH]([Sb-]([Cl])([Cl])([Cl])([Cl])[Cl])C=C1.c1ccncc1 (centres undefined) | inactive: 1.34% [at 11.4 µM, scaled: untreated 0%, proteasome inhibitor 100%] | 
O=C1NC(=O)N(C2CCCCC2)C(=O)C1C1c2ccccc2C(=O)N1Cc1ccccc1 (centres undefined) |  | inconclusive: 10 µM [signal inhibitor, partial curve]
Cc1cccc(-n2c(CC3C(=O)Nc4ccc(C)cc43)nc3ccccc3c2=O)c1 (centres undefined) | inconclusive: 1.5% [signal inhibitor] | 
O=P(/C(=N/O)N1CCCCC1)(N1CCOCC1)N1CCOCC1 | inactive: -1.26% | 
O=C(c1ccc2c(c1)N(Cc1c(F)cccc1Cl)C(=O)c1ccccc1S2)N1CCC2(CC1)OCCO2 | inconclusive: -1.26% [signal inhibitor] | 
Cc1ccc(C)c(CN2C(=O)c3ccccc3Sc3ccc(C(=O)N4CCC5(CC4)OCCO5)cc32)c1 | inconclusive: 2.91% [signal inhibitor] | 
Nc1nc(N)c(Cn2ccnc2)c(=O)[nH]1 | inactive: -0.683% [at 11.4 µM, scaled: untreated 0%, proteasome inhibitor 100%] | 
OC[C@H]1CCCN2CCCC[C@@H]12 | inactive: -0.783% [at 11.4 µM, scaled: untreated 0%, proteasome inhibitor 100%] | 
Cc1cccc(CN2C(=O)CN=C(c3ccccc3Cl)c3cc(Cl)ccc32)c1 | inconclusive: -0.0812% [signal inhibitor] | 
CCOC(=O)c1c(C)n(COCCO)c2ccc(O)cc12 | inconclusive: 10.6% [signal inhibitor] | 

Compound | IkBa stabilization activation | Potency
C[C@@H]1C[C@@H]([C@H](O)CC2CC(=O)NC(=O)C2)C(=O)[C@@H](C)C1 | inconclusive: -3.06% [signal inhibitor] and inconclusive: -2.69% [signal inhibitor] | 
Cc1ccc(-n2c(/C=C/c3ccccc3)nc3ccccc3c2=O)cc1C | inconclusive: -0.628% [signal inhibitor] | 
COCCNC(=O)c1c(NC(=O)c2ccco2)n(Cc2ccccc2)c2nc3ccccc3nc12 | inactive: 0.356% | 
CC(C)(C)c1cc(C=C(C#N)C#N)cc(C(C)(C)C)c1O | inconclusive: -11.7% [signal inhibitor] | 
CCn1nc(-c2ccccc2)nc2c(=O)n(C)c(=O)nc1-2 | inconclusive: 10.8% | 
O=C(O)c1nn(Cc2ccc(Cl)cc2Cl)c2ccccc12 | inactive | 
CC(=O)c1ccc(NC(=O)c2sc3nc4c(cc3c2N)N2CCC4CC2)cc1 | inconclusive: 1.6% [signal inhibitor] | 
N[C@H](Cc1c[nH]c2ccccc12)P(=O)(O)O | inactive: -0.214% [at 11.4 µM, scaled: untreated 0%, proteasome inhibitor 100%] | 
CCc1ccc(OCCCN=C(C)c2c(O)n(C)c(=O)n(C)c2=O)cc1 | inconclusive: 10.6% [signal inhibitor] | 
O=C(c1cc2cc3ccc(Cl)cc3nc2o1)N1CCC2(CC1)OCCO2 | inactive: -1.9% | 
Cc1c(C(c2ccc(O)cc2)c2c(O)c3ccccc3oc2=O)c(=O)n(-c2ccccc2)n1C (centres undefined) | inconclusive: 1.51% [signal inhibitor] | 
CCOc1ccc(CN2C(=O)c3ccccc3Sc3ccc(C(=O)N4CCC5(CC4)OCCO5)cc32)cc1 | inconclusive: -0.506% [signal inhibitor] | 
O=c1c2ccccc2nc(/C=C\c2cccc(Br)c2)n1-c1ccc(O)cc1 | inconclusive: 3.6% [signal inhibitor] | 
Cc1cccc(-n2c(/C=C/c3cccc4ccccc34)nc3ccccc3c2=O)c1 | inconclusive: 6.27% [signal inhibitor] | 
O=CN1C[C@H]2C[C@@H](C1)c1cccc(=O)n1C2 | inactive: 0.112% [at 11.4 µM, scaled: untreated 0%, proteasome inhibitor 100%] | 
CCSc1nnc(NC(=O)c2cccn(Cc3ccc(Cl)cc3)c2=O)s1 | inconclusive: -0.896% [signal inhibitor] | 
C[C@@]12CC[C@H]3[C@@H](CC[C@H]4C[C@@H](O)CC[C@]43C)[C@H]1CC[C@@H]2C(=O)C[C@H](O)C(F)(F)F | inactive: 1.21% [at 11.4 µM, scaled: untreated 0%, proteasome inhibitor 100%] | 
O=C(Nc1ccc2c(c1)OCO2)c1cccn(Cc2ccc(F)cc2)c1=O | inconclusive: 1.21% [signal inhibitor] | 
NCC(CC(=O)O)c1ccc(Cl)cc1 (centres undefined) | inactive: 2.18% | 
